Where “and” joins values, the source holds several entries; their conditions need not be identical. Equal entries are not always repeated. Among all 94,000 compounds or so, about 4,000 (4.3%) were called active. This list was built around the results that the source calls inconclusive (neither active nor inactive); the mix of calls is not that of the screen. The call rests on the fitted dose curve; in most records, active means well fitted inhibition curve with a large enough effect; inconclusive means small, poorly fitted or top-dose-only effect; inactive means no such curve, though single readings can be large or run the other way. Potencies beside an inconclusive call are fits to weak or partial responses and may not hold up.
Test: Cytotoxic Profiling in NIH 3T3 Cell Line of Diverse Libraries Using Quantitative High-Throughput Screening; further: nearly all actives have a fitted effect of over 55% in size
Details: NIH 3T3 viability, CellTiter-Glo ATP luminescence, 48-72 h; series mostly up to 96.7 µM
Procedure, shortened: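 First NIH 3T3 cells are plated at 400 cells/well; next compound is pinned in; then plates incubate 48 or 72 hr at 37 °C; finally CellTiter-Glo is added and luminescence read after 10 min.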
Potency means the concentration at half of the fitted maximal effect; tags describe the fitted curve by direction and shape.

Row | Structure (SMILES) | Potency
1 | COc1ccc(C(=O)N2CCOCC3(CN(Cc4cc(C)cc(F)c4)C3)C2)cc1OC | inconclusive: 10 µM [inhibitor, full curve, poor fit]
2 | Cc1nnc(-c2cc(Nc3cccc(N(C)C)c3)ccn2)n1Cc1ccccc1 | inconclusive: 79.4 µM [inhibitor, partial curve]
3 | Cc1ccccc1CN1CC2(COCC1=O)CN(c1ccc(C(F)(F)F)cn1)C2 | inconclusive: 79.4 µM [inhibitor, partial curve]
4 | CCn1nccc1C(=O)N1CCC(Cc2ccc(CCC(=O)NC3CC3)cc2)CC1 | inconclusive: 70.8 µM [inhibitor, single point]
5 | O=C(NC[C@H]1O[C@H](Cc2cc(CN3CCN(c4ccccc4)CC3)on2)CC[C@@H]1O)c1ccccc1 | inactive
6 | Cc1nn(-c2ccccc2)c2c1C(C)N(C1CCN(C(=O)C3CCCC3)CC1)C2=O (stereo unspecified) | inconclusive: 50.1 µM [inhibitor, partial curve, poor fit]
7 | CC(C)c1noc(CC2CCN(C(=O)c3ccc(F)c(Cl)c3)CC2)n1 | inconclusive: 10 µM [inhibitor, full curve, poor fit]
8 | CSc1cccc(NC(=O)Cn2c(N3CCc4ccccc4C3)nc(C)cc2=O)c1 | inconclusive: 25.1 µM [inhibitor, full curve]
9 | COc1ccc(NC(=O)c2ccc3c(c2)NC(C)(CNc2ccccc2)CO3)cn1 (stereo unspecified) | inconclusive: 56.2 µM [inhibitor, partial curve, poor fit]
10 | CC(C)NC(=O)N(C1CC1)C1CCOC2(CCN(C(=O)Cc3ccsc3)CC2)C1 (stereo unspecified) | inactive
11 | O=C1CN(C(=O)c2cccc(C(F)(F)F)c2)CC(O)CN1CCCc1ccccc1 (stereo unspecified) | inconclusive: 25.1 µM [inhibitor, full curve]
12 | COc1ccc(C(=O)N2CCc3ccc(C(=O)NCc4cccc(F)c4)cc32)cc1 | inconclusive: 39.8 µM [inhibitor, partial curve]
13 | COc1ccc(C(=O)Nc2ccc(-c3noc([C@@H]4CCCN4Cc4ccco4)n3)cn2)cc1 | inconclusive: 25.1 µM [inhibitor, partial curve]
14 | O=C(NC1CCN(c2ccc3nnc(C4CC4)n3n2)C1)c1ccccc1F (stereo unspecified) | inactive
15 | Cc1noc(C)c1-c1cc2c(cc(C)n2C)c(Nc2ccncn2)n1 | active: 20 µM
16 | O=[N+]([O-])c1cccc(-c2noc([C@@H]3Cc4nc[nH]c4CN3Cc3cccs3)n2)c1 | active: 79.4 µM
17 | O=C1CC(NC2CCSCC2)CN1CCc1cccc(Cl)c1 (stereo unspecified) | inactive
18 | CC1=C[C@@H](CN2CCN(c3ccccn3)CC2)[C@H](C(C)C)C[C@H]1Cc1nnc(-c2ccc([N+](=O)[O-])cc2)o1 | inconclusive: 89.1 µM [inhibitor, partial curve, poor fit]
19 | Cc1ccsc1C(=O)N1CCCC1c1noc(COc2ccc(F)cc2)n1 (stereo unspecified) | inconclusive: 50.1 µM [inhibitor, partial curve, poor fit]
20 | CSc1ccc(-c2ccc3c(c2)C(=O)N2CCN(C(=O)CCC(=O)O)C[C@@H]2C(=O)N3)cc1 | inactive
21 | O[C@]1(c2ccccc2)CCN(Cc2ccncc2)C[C@H]1N1CCCC1 | inconclusive: 50.1 µM [inhibitor, partial curve, poor fit]

Row | Structure (SMILES) | Potency
22 | C=CCO[C@@H]1CCN2C(=O)c3cc(-c4cc(Cl)ccc4OC)ccc3NC(=O)[C@H]12 | active: 100 µM
23 | COc1ccc(-c2noc([C@@H]3C[C@@H](O)CN3Cc3ccc(C)cc3)n2)cc1 | inactive
24 | COc1ccccc1-c1cccc(CN2CCC(N[S+](=O)([O-])c3ccccc3)CC2)c1 | active: 31.6 µM
25 | COc1ccc(Nc2ncc(-c3ccccc3OC)c3c2OCC3)cc1 | inconclusive: 31.6 µM [inhibitor, full curve]
26 | CN1[C@@H](CCC(=O)NCc2ccco2)CNC(=O)[C@@H]2[C@H]1CCN2Cc1cccc(OC(F)(F)F)c1 | inconclusive: 56.2 µM [inhibitor, partial curve, poor fit]
27 | COc1ccc(-c2cc(N3CCC(NC(=O)c4cccc(C#N)c4)CC3)n[nH]2)cc1 | inconclusive: 50.1 µM [inhibitor, partial curve, poor fit]
28 | COc1ccc(Cn2c3c(c(=O)n2Cc2ccccc2)CCN(C(=O)c2cocn2)C3)cc1 | active: 25.1 µM
29 | O=C(Cn1ccn2nc(-c3ccc(F)cc3)c(CO)c2c1=O)Nc1cc(F)ccc1Cl | inconclusive: 70.8 µM [inhibitor, single point]
30 | O=C1COc2ccc(-c3ccc(F)cc3)nc2CN1 | inconclusive: 70.8 µM [inhibitor, partial curve]
31 | COc1ccc(-c2cc(C[C@@H]3CC[C@H](O)[C@@H](CNC(=O)C(C)(C)C)O3)no2)cc1 | inactive
32 | COc1ccc(-c2ccc(COc3ccc4c(cnn4CCC(=O)O)c3)cc2)c(C)c1 | inconclusive: 39.8 µM [inhibitor, partial curve, poor fit]
33 | COc1ccccc1N1CCN(C(=O)C(C)[C@@H]2CCc3c(C)cc(OCCN4CCOCC4)c(C)c3C2)CC1 (stereo partly specified) | inconclusive: 50.1 µM [inhibitor, partial curve, poor fit]
34 | O=C(NCc1ccccc1F)c1ccc2nc(-c3ccccn3)oc2c1 | inconclusive: 100 µM [inhibitor, single point]
35 | Cn1cc(-c2cnc3[nH]cc(CC(=O)Nc4ccc(C(F)(F)F)cc4)c3c2)cn1 | inconclusive: 44.7 µM [inhibitor, partial curve]
36 | Cc1cccc(NC(=O)N2C[C@@H](F)C[C@H]2C(=O)N2CCc3ccccc3C2)c1 | inactive
37 | COc1ccccc1C(=O)NC[C@@H]1C=C(C)[C@H](Cc2nc3ccncc3[nH]2)C[C@H]1C(C)C | inconclusive: 31.6 µM [inhibitor, partial curve, poor fit]
38 | O=C1C(N2CCN(S(=O)(=O)c3cccc(F)c3)CC2)CCN1CCc1ccccc1 (stereo unspecified) | inconclusive: 50.1 µM [inhibitor, partial curve, poor fit]
39 | O=C(c1ccccn1)N1CC(n2cc(COCc3ccccc3)nn2)C1 | inactive
40 | O=C(Nc1cc(C2CC2)nn1-c1ccccc1)c1cccc(Br)c1 | inconclusive: 50.1 µM [inhibitor, partial curve, poor fit]
41 | COC(=O)[C@@H]1Cc2c([nH]c3ccccc23)[C@H]2C[C@@H](NC(C)C)C[C@@H](c3ccc(C)cc3)N21 | active: 39.8 µM
42 | COCCOc1ncccc1-c1noc([C@@H]2CCCN2CC(C)(C)C)n1 | inconclusive: 56.2 µM [inhibitor, partial curve, poor fit]

Row | Structure (SMILES) | Potency
43 | COc1ccc(-c2nc(C3CC3)nc3c2CN([S+](=O)([O-])c2ccccc2)CC3)cc1 | active: 17.8 µM
44 | Cc1ncc(CN2CCC3(CC2)CCN(Cc2ccoc2)CC3CO)n1C (stereo unspecified) | inactive
45 | CN(C)C[C@@H]1CN(S(C)(=O)=O)C[C@H]1NC(=O)c1ccccc1 | inactive
46 | S=C(NC1CCCCC1)N[C@H]1CO[C@H]2[C@@H]1OC[C@@H]2n1nnnc1Oc1ccc(-n2ccnc2)cc1 | inconclusive: 11.2 µM [inhibitor, full curve, poor fit]
47 | COCCOc1ncccc1-c1noc([C@@H]2CCCN2C(C)C)n1 | inactive
48 | O=C(Nc1ccccc1)N1CCCC(Cn2c(C3CC3)nc3cccnc32)C1 (stereo unspecified) | inactive
49 | CCc1ccc(CN2CCCC(CNC(=O)c3cccc(OC)c3OC)C2)cc1 (stereo unspecified) | inconclusive: 56.2 µM [inhibitor, partial curve, poor fit]
50 | C[C@]1(CO)[C@H]2Cc3sc(NC(=O)c4ccc(F)cc4)nc3[C@@H](CC(=O)NCc3cccs3)[C@]2(C)CC[C@H]1O | inconclusive: 50.1 µM [inhibitor, partial curve, poor fit]
51 | Cc1noc(C)c1[S+](=O)([O-])N1CCN(Cc2ccccc2-c2cccnc2)CC1 | inconclusive: 35.5 µM [inhibitor, partial curve]
52 | CN1CCN(c2ccc(-c3cc4c(ccn4C)c(C(=O)NCc4cccnc4)n3)cc2)CC1 | inconclusive: 12.6 µM [inhibitor, full curve, poor fit]
53 | COc1ccc2c(c1)CCN=C2C[C@H]1CN(C(=O)C2CC2)CC[C@H]1CC(=O)O | inactive
54 | COc1cccc(-c2ccc(C(=O)N3CCC(NC(=O)Cc4ccc(C(F)(F)F)cc4)CC3)cc2)c1 | inconclusive: 14.1 µM [inhibitor, full curve] and inconclusive: 22.4 µM [inhibitor, full curve, poor fit]
55 | O=C(c1cccc(Cl)c1)N1CCC2(CC1)N=C(c1ccc(Br)cc1)NO2 | inactive
56 | O=C(NC1CCN(Cc2ccccc2)CC1)c1cc2n(n1)CC(c1ccc(Cl)cc1)OC2 (stereo unspecified) | inconclusive: 39.8 µM [inhibitor, partial curve, poor fit]
57 | COc1ccc(NC(=O)O[C@@H]2C=C[C@H](c3c(C)nn(-c4ccccc4C)c3C)C2)cc1 | inconclusive: 89.1 µM [inhibitor, partial curve]
58 | O=C(CCn1cncn1)N1CCOc2c(O)cc(-c3cccc(Cl)c3)cc2C1 | inconclusive: 50.1 µM [inhibitor, partial curve, poor fit]
59 | CCN(Cc1ccncc1)C(=O)c1cc(CN2CCC(Cc3ccccc3)CC2)on1 | inconclusive: 56.2 µM [inhibitor, partial curve, poor fit]
60 | O=C(Nc1cccc2ccccc12)O[C@@H]1CO[C@H]2[C@@H]1OC[C@@H]2NC(=O)c1ccco1 | inactive
61 | CN1CCC2(C1)CN(CC1CCOCC1)c1ccc(C(=O)NCC(F)(F)F)cc12 (stereo unspecified) | inconclusive: 100 µM [inhibitor, single point]
